Here are results for 167 variants from the RNAGym collection of RNA variant scans (doi:10.7554/elife.90254).

The chains are these.
B1: LINE1-full (parent)
chain: UACGUAGGUGGUUUUCCCCUGAUAGUGCUAAGGGGGCCUGGAAGUUUGGACUGGGCAGAGCUCAACACAGCGUGGCAAAGUGGCUGUGGCUAGACUGCCUCUCUGGAUUCCUCGUCACUCAGCAGGGCAUCUCUGAGAGAAAUGCC

The source gives no read counts; variants with many changes may rest on few reads.

Variants of B1 are the subject of the data set. The data set is described as follows: self-cleavage, relative activity (ratio to wild type); higher = more cleavage; in vitro, sequencing; the parent is a self-cleaving ribozyme.
Turning to U23C A24G U85A U130A A138G, the self-cleavage was 0.5.

As to U23C G72A A94G, the self-cleavage was found to be 0.29.

On to U23C A24G U45A A79G, for which the self-cleavage came out at 0.

On to A22U A78G U85C A124U, for which the self-cleavage came to 0.06.

A22U C99A U100C: the self-cleavage is 0.55.

Consider U23C C95U A141G, for which the self-cleavage is 0.31.

For the variant A22U A65U A77G, the self-cleavage stood at 0.27.

U23C U29C A64U A138U: the self-cleavage came out at 0.67.

For the variant U23C G72A C76U A79G, the self-cleavage amounted to 1.05.

Turning to A22U U26A U39C, the self-cleavage stood at 0.84.

For A22G U115C A129G, the self-cleavage came to 0.88.

In the case of A22U U45A A121G U132G, the self-cleavage came out at 0.97.

For the variant U23C A64U U104C U143C, the self-cleavage amounted to 0.87.

Turning to A22U U29A A43G U62C G125A, the self-cleavage was 0.05.

Take A22U A59G A142G: the self-cleavage stood at 0.26.

Take U23C A77G G93A: the self-cleavage came out at 0.05.

As to U23C A50G A69U A79G U100C, the self-cleavage was found to be 0.

As to U23C A24G U87C, the self-cleavage was 1.1.

On to U23A U39C A42G A59U A64G U130A, for which the self-cleavage is 0.37.

For the variant U23C A57G A136U A140G, the self-cleavage is 1.53.

Take U23C U26A U100A U108C: the self-cleavage came to 2.14.

As for U23A U46G A138U, the self-cleavage amounted to 1.6.

For U23C U26A U62C U115C A124U, the self-cleavage came to 0.

For the variant A22U A69G A78U, the self-cleavage was found to be 1.41.

For U23A A50G U104A U112C A136G, the self-cleavage worked out at 1.25.

Consider U23C A30U A69U, for which the self-cleavage amounted to 0.

U23A A65U A67U U73A: the self-cleavage came out at 0.06.

Turning to A22U A42G U108C, the self-cleavage was determined as 1.26.

With U23A U130C U134C, the self-cleavage turned out to be 1.07.

Regarding U23C A30G U85C, the self-cleavage is 0.97.

Regarding A22U U85C U143C, the self-cleavage was 0.45.

For the variant U23C G72A A117U, the self-cleavage was found to be 1.35.

With U23C A64G A107G A140G, the self-cleavage was 0.

Regarding A22U U91C A129G, the self-cleavage turned out to be 0.84.

A22U U45C A69G U132A A142G: the self-cleavage came to 0.84.

A22U A30U G106U: the self-cleavage came out at 0.41.

As for U23C A42G A50U A107G C128A, the self-cleavage came to 0.14.

Consider U23C A50G G74A U108C, for which the self-cleavage was 0.

Regarding A22U U47C U100C, the self-cleavage turned out to be 0.

In the case of U23C G54A U100A U143C, the self-cleavage was 0.22.

As to U23C A79G A121G U134C, the self-cleavage came out at 1.2.

Turning to U23C A59G U109C A138G, the self-cleavage amounted to 0.

Consider U23C G33A G72A A121C A142G, for which the self-cleavage was 1.35.

A22G U130C A141U: the self-cleavage stood at 2.07.

Regarding A22U U39A A67G, the self-cleavage was 0.51.

With U23C A77U C90A C116A, the self-cleavage was determined as 0.

As for U23C A42G G106A, the self-cleavage was 1.67.

Take U23C A57G A121G: the self-cleavage stood at 0.82.

Take A22U A78U U85C U115C A121G: the self-cleavage amounted to 0.42.

For the variant U23C A59G A129G, the self-cleavage amounted to 0.23.

As to A22U U46C A59U, the self-cleavage is 0.61.

For the variant A22G U109C U119G A138U, the self-cleavage turned out to be 1.15.

Regarding A22U G54A U119C A124G, the self-cleavage turned out to be 0.18.

Consider A22U U23A A43G A67G C90A, for which the self-cleavage is 0.1.

As to A22U A59U A65G A138G, the self-cleavage was determined as 0.07.

As to U23C U26C U47C A59G, the self-cleavage worked out at 0.

Regarding U23C A124G A141U, the self-cleavage came out at 0.56.

Regarding U23A A24G A50G G86C, the self-cleavage was determined as 0.19.

For U23C C56U A64U A67G U115C, the self-cleavage was 0.07.

Regarding U23C A67G U112A A140G, the self-cleavage came out at 0.72.

U23C A57U G58A U62C U134C: the self-cleavage came out at 0.04.

Consider U23C A31G A117U A138G, for which the self-cleavage worked out at 1.2.

A22U U29C A79U: the self-cleavage stood at 1.37.

For the variant U23C A43G A79G G127U A142G, the self-cleavage is 0.84.

For the variant U23C G36A A59U, the self-cleavage was determined as 0.52.

For the variant U23C A121G A140G, the self-cleavage was 0.63.

On to U23C G49A U52A, for which the self-cleavage is 1.17.

Regarding U23A U102A G135A, the self-cleavage was found to be 1.54.

Regarding A22U G33U A129G A142G, the self-cleavage worked out at 1.35.

Take U23A A78G C113A: the self-cleavage came to 0.73.

On to U23C G86A A124G A136G, for which the self-cleavage is 0.

As for A22G U134C U143G, the self-cleavage is 1.31.

Regarding U23C G34A G40A A64G, the self-cleavage came to 0.2.

U23C A43G A57G A65G: the self-cleavage was 0.

A22U G97A U100C: the self-cleavage amounted to 0.33.

On to A22U U87A A136G, for which the self-cleavage turned out to be 0.13.

Regarding A22U A50G A69G, the self-cleavage came out at 0.

In the case of U23C G122U G144A, the self-cleavage amounted to 1.4.

As for U23C A69U U73A A136G, the self-cleavage came out at 0.1.

Take A22U A42G A77U U102C: the self-cleavage was determined as 2.16.

As for A22U A59U A117U A129G, the self-cleavage is 0.92.

With A22U A79G U102C A124G, the self-cleavage turned out to be 1.53.

As to U23C A24G C51U, the self-cleavage was 1.19.

Consider U23C A78G U109C, for which the self-cleavage was 2.83.

Consider U23C C56U C90G, for which the self-cleavage was 0.03.

As for A22G U132C A142G, the self-cleavage amounted to 1.37.

As for U23A G54U A64C U87C, the self-cleavage was found to be 0.

In the case of A22U U134C A141G, the self-cleavage was 0.84.

Take U23C A50U A138G: the self-cleavage was 1.38.

In the case of U23C A42G U85C A142G, the self-cleavage was 0.73.

Turning to A22G U130C U132C, the self-cleavage came out at 1.91.

Consider U23A A30G U39C A57G, for which the self-cleavage amounted to 0.92.

On to U23A U46A A57G U100C, for which the self-cleavage stood at 1.02.

As for U23C A117G A124G, the self-cleavage is 1.15.

Turning to U23C A43G U45C G80A, the self-cleavage was found to be 2.26.

As to U23C G41U A65G A92G, the self-cleavage is 0.06.

For the variant A22U C103A U130C A142G, the self-cleavage turned out to be 0.8.

Consider U23C C38U U73A, for which the self-cleavage was 0.85.

Regarding U23C A65G A94U U112A A142C, the self-cleavage was found to be 0.08.

As to A22U A64C G86A, the self-cleavage was determined as 0.06.

Take A22U C68U C131U: the self-cleavage was 0.09.

For U23A U62C A77G G86A, the self-cleavage amounted to 0.05.

Turning to A22U U46C C63U C84A U104C, the self-cleavage is 0.09.

Regarding A22U U134C A138G, the self-cleavage is 1.03.

In the case of U23A C56U U62C U132C, the self-cleavage was determined as 0.33.

As to U23C G105U U134A, the self-cleavage amounted to 1.73.

In the case of A22G U108C A121G, the self-cleavage amounted to 1.15.

For U23C A57U U96C, the self-cleavage was 0.

For the variant U23C A94U U109C, the self-cleavage came to 0.47.

For the variant U23C G55A C84U U108C U115C U119A, the self-cleavage was found to be 0.12.

In the case of U23C A31G A42U A142C, the self-cleavage stood at 1.19.

Take A22U U39C A78G: the self-cleavage turned out to be 0.95.

On to A22U A64G U100A, for which the self-cleavage amounted to 0.23.

Regarding A22U G72U U119C G137U, the self-cleavage came out at 1.22.

As for A22U U73C U130A A142G, the self-cleavage was found to be 1.66.

For U23C A31U A129G, the self-cleavage is 0.69.

For the variant U23C A42U U112C, the self-cleavage was determined as 0.58.

U23C A30G U39C A64G G97A: the self-cleavage is 0.26.

For the variant A22U A94C U112C, the self-cleavage came to 0.15.

As to A22U C61U A79G, the self-cleavage came to 0.

Regarding A22G U115A U132G A141G, the self-cleavage is 1.53.

For the variant U23A G36A A43G G137U, the self-cleavage came out at 0.44.

On to A22U A69U U81C A107U A117G, for which the self-cleavage amounted to 0.

For the variant U23A U46C C76U, the self-cleavage turned out to be 0.57.

Consider U23A U46A G86U A94G A124U, for which the self-cleavage is 0.08.

On to A22U A24U A67G U87C G144A, for which the self-cleavage stood at 1.84.

U23C A30U A129U U132C: the self-cleavage turned out to be 2.11.

For U23C C76U U132C A138G, the self-cleavage was 0.27.

Consider U23C A59U U143C, for which the self-cleavage was 0.59.

A22U A78G A129G: the self-cleavage stood at 1.75.

For A22G U119C U130C, the self-cleavage was 0.92.

U23A A94U U102A U109C A124G A142G: the self-cleavage was 0.53.

For U23C A64C U119C, the self-cleavage was found to be 0.

Take U23A A77G G83U U85C U112C: the self-cleavage amounted to 0.06.

U23C G27A U39G: the self-cleavage turned out to be 1.5.

A22U G27A U29C A79G A140G: the self-cleavage is 1.93.

In the case of U23C A24G A142G, the self-cleavage came out at 0.55.

Take A22U U45C U100C U134C U143A: the self-cleavage was 1.15.

For U23A U39C G127A A141G, the self-cleavage was 0.73.

With A22U A92U U96C U143A, the self-cleavage was determined as 0.13.

In the case of U23C A64U U108C, the self-cleavage worked out at 0.97.

U23C A121C A136U: the self-cleavage amounted to 1.48.

As to A22U G49A G126A A140U, the self-cleavage stood at 0.88.

For U23A U73A C84U, the self-cleavage amounted to 0.28.

Regarding A22U A43U A79U A124G, the self-cleavage was 1.19.

Turning to A22U A31C A69G, the self-cleavage turned out to be 0.21.

In the case of U23A U52A A67G, the self-cleavage is 0.86.

As for U23C G36A A77G U134A, the self-cleavage turned out to be 2.08.

A22G U132C G144A: the self-cleavage was 1.91.

On to A22U U26G G27A G41A, for which the self-cleavage came to 0.85.

With U23A U47C U130A, the self-cleavage was 1.79.

As to U23A A78G U91G, the self-cleavage was 0.

In the case of U23A U87A G89C G137A A140G, the self-cleavage stood at 0.06.

Take A22G U109A U130C A142G: the self-cleavage turned out to be 1.45.

Consider A22U A77G A136G, for which the self-cleavage is 0.57.

U23A G60U G82A U134C: the self-cleavage turned out to be 0.02.

As to A22U A42G U112C, the self-cleavage was found to be 2.27.

Regarding A22U A31G A121U, the self-cleavage was found to be 1.5.

As for U23C C38U A42G U47A, the self-cleavage was 1.11.

Take U23C A24G G55C U96A A141G: the self-cleavage was found to be 0.12.

In the case of U23A U45C U102C, the self-cleavage stood at 0.57.

As to U23C A42G U46C C118G G125U, the self-cleavage worked out at 1.06.

A22U G34C G60A U132C A142C: the self-cleavage is 0.15.

For A22U U29C A78G, the self-cleavage came out at 0.78.

On to U23C A64G U109C U119C, for which the self-cleavage is 0.32.

U23C A92G A117U: the self-cleavage stood at 0.2.

For A22U A107U U143A, the self-cleavage was 1.36.
